According to patent US20250163168A1 (Pfizer, published 2025):

Columns and labels:
[1] = biological target: T1, human GIPR (hGIPR), full length (human, UniProt P48546 22-466); test: cell-based or functional assay
T1 sequence: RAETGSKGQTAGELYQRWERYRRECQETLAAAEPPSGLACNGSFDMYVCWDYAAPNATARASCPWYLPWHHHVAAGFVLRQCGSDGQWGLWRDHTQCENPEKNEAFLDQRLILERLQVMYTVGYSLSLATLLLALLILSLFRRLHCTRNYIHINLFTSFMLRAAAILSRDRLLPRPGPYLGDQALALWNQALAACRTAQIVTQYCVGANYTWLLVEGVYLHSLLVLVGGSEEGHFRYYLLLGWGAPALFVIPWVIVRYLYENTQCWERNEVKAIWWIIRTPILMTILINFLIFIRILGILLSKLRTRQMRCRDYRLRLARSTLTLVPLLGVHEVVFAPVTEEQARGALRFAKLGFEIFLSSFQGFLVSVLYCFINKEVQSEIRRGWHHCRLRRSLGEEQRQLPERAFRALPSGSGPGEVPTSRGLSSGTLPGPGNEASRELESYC

[2] = biological target: T2, Human GIPR ECD (GIPR extra cellular domain) (human); test: SPR (Biacore 8K, 37 C); antibody captured on anti-human IgG, human GIPR ECD as analyte; 1:1 model
T2 construct: The published benchmark structures (6dkj, 4hj0) used their own ECD constructs
T2 chain: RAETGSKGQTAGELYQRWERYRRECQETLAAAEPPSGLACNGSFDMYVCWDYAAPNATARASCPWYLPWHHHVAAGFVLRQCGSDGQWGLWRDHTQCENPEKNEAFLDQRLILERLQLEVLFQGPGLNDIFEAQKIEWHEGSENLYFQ

B1: anti-GIPR antibody GIPR-0107 (antibody, human IgG1, lambda)
heavy: QVQLVQSGAEVKKPGSSVKVSCKASGYTFSSYAINWVRQAPGQGLEWMGGIVPIFGIANYAQKFQGRVTITADESTSTAYMELSSLRSEDTAVYYCARGSDYVVPHFDYWGQGTLVTVSSASTKGPSVFPLAPSSKSTSGGTAALGCLVKDYFPEPVTVSWNSGALTSGVHTFPAVLQSSGLYSLSSVVTVPSSSLGTQTYICNVNHKPSNTKVDKKVEPKSCDKTHTCPPCPAPEAAGAPSVFLFPPKPKDTLMISRTPEVTCVVVDVSHEDPEVKFNWYVDGVEVHNAKTKPREEQYNSTYRVVSVLTVLHQDWLNGKEYKCKVSNKALPAPIEKTISKAKGQPREPQVYTLPPSREEMTKNQVSLTCLVKGFYPSDIAVEWESNGQPENNYKTTPPVLDSDGSFFLYSKLTVDKSRWQQGNVFSCSVMHEALHNHYTQKSLSLSPGK
light: QSVLTQPPSASGTPGQRVTISCSGSSSNIGSNYVYWYQQLPGTAPKLLIYRNNQRPSGVPDRFSGSKSGTSASLAISGLRSEDEADYYCAAWDDSLSGVVFGGGTKLTVLGQPKAAPSVTLFPPSSEELQANKATLVCLISDFYPGAVTVAWKADSSPVKAGVETTTPSKQSNNKYAASSYLSLTPEQWKSHRSYSCQVTHEGSTVEKTVAPTECS
notes: also called GIPR-1017
Human GIPR-CHO cAMP Antagonist Activity IC50 [1]: 14.4 nM | Kd [2]: 13.8 nM | koff [2]: 0.00501 s⁻¹ | kon [2]: 363000 M⁻¹ s⁻¹
